# Measurements as given in the supplement of paper PMC3334620.
# Whole data set: some 33,000 sequences, median “E-score (-0.5 to 0.5)” near -0.013, cut for the highest 2% near 0.3. The list shows a part of the results.
# Target: T1, Msn1 (UniProt P22148)
# T1 sequence: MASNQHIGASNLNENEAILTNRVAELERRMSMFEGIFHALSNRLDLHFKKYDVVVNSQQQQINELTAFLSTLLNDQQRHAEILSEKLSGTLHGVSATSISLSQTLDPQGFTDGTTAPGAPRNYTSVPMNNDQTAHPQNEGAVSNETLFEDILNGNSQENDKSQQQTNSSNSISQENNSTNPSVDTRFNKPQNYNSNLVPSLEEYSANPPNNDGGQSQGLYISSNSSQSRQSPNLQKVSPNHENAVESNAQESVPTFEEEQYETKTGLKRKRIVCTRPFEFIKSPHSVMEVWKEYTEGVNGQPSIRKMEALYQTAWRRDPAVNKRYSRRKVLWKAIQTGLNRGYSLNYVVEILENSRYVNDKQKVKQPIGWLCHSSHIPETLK
# Assay: PBM E-score (8-mer binding enrichment) (E-score (-0.5 to 0.5)); higher = stronger / more preferred TF binding; most listed sequences are background and not binding sites
# Conditions: protein concentration: 200 nM; construct: GST-full length
# Experimental: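 Universal 'all 10-mer' protein binding microarrays (Agilent AMADID 015681) probed with GST-tagged S. cerevisiae TFs (full-length or DBD) made by in vitro transcription/translation (PURExpress), about 100-200 nM. Bound TF was detected with fluorescent anti-GST. Each ungapped 8-mer (which stands for itself and its reverse complement) is scored by the PBM enrichment score (E-score), a modified Wilcoxon-Mann-Whitney statistic from -0.5 to +0.5, computed with the Universal PBM Analysis Suite. Scale: above 0.35 generally sequence-specific binding.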
row,Sequence,PBM E-score
1,AAACATTA,-0.0805
2,CCCACAGG,-0.227
3,CCGCTTAG,-0.167
4,TCTAACCA,0.0639
5,CGGCCGGA,0.0752
6,CCTACAGC,-0.0784
7,GCTCGCAC,-0.073
8,AAGTCAAA,0.133
9,TGAGGACA,0.46
10,AAGCACGG,-0.188
11,CCCTCACG,-0.189
12,AATCGTGG,0.0628
13,AATTTTTG,0.234
14,AGACGACG,-0.192
15,ATCCAGTA,-0.0383
16,GCATGCCC,0.101
17,GGGTTGAC,-0.236
18,AAAAGGAG,-0.158
19,CCCTTGTA,-0.0851
20,TCCGGGAA,0.156
21,CAGAGATC,-0.0826
22,TAGGCACA,-0.112
23,GTGATTTA,0.0986
24,ATGCCCTC,-0.248
25,GAGCTCGA,0.0491

row,Sequence,PBM E-score
1,CCTTTGTC,0.367
2,ATCATCGC,-0.0326
3,CTACAGAA,0.129
4,CAGAAATA,0.0248
5,CTCCGAAG,0.0712
6,AACGGCAC,0.0409
7,CCAGCGCG,-0.158
8,CATCGGTC,0.00255
9,GCAAGAAC,0.151
10,TCAATTGA,0.099
11,GCGCCCGC,-0.19
12,GCGATCCC,-0.192
13,AACTGAAA,0.123
14,CTCTCGCA,-0.144
15,CCCAAGAC,0.0872
16,CCTGACTC,-0.0525
17,CAGAGATG,0.157
18,CATCTTCA,0.0522
19,AGACCTTC,-0.214
20,GCCCATCA,-0.169
21,CAGGATTA,0.113
22,GTATCAAC,0.113
23,ACGACGAT,0.0193
24,CGAGCACC,-0.138
25,CTTGGGCC,-0.266

row,Sequence,PBM E-score
1,AAATATGG,0.0638
2,ATCAAGGG,-0.0321
3,ACTGAGAT,-0.0631
4,AGGGAACA,0.0286
5,AACTAAAG,0.179
6,TACGCATA,0.212
7,CTTGTCGC,0.166
8,TATCGAAA,0.0812
9,ACTTGCAC,0.0427
10,AGACCACC,-0.327
11,AGGCGGCC,-0.119
12,AGGTCGAC,0.0284
13,AGGGAGTA,-0.157
14,CACGTTGC,-0.0714
15,AAGTTCAT,0.0759
16,GAGCGCGC,-0.0891
17,GGACCCCC,-0.333
18,AAACGTAT,0.0712
19,ACCGTAAA,0.0363
20,ACTGGCAA,0.0309
21,GCGCAAAA,0.121
22,AAATGTGG,0.147
23,GGCCAGAC,0.118
24,ATTTAGTA,0.216
25,GGATTAAA,-0.0103

row,Sequence,PBM E-score
1,GCGGTTGA,-0.143
2,TCTGGCCA,-0.0159
3,ATGGGGCG,-0.1
4,GCGATACC,-0.216
5,CCTTAGCA,-0.165
6,AGAACTGA,0.0524
7,ATCGACGC,0.123
8,AATGATAA,0.182
9,ACACTCCT,-0.126
10,AATTCCAC,0.158
11,GGCCAACC,-0.103
12,TATACGAA,0.132
13,TATATGAA,0.182
14,GAGGTATA,0.0048
15,ATAGTAGA,0.0835
16,ACGATGCA,-0.0853
17,AGTATCTG,-0.0612
18,ACTGTTGA,-0.0664
19,AAGACACG,0.248
20,AGTCCGTC,0.206
21,AAGTTCCT,0.0786
22,AGTACTAA,0.121
23,AGATTCCA,0.0417
24,ATGTTCAA,0.185
25,ACAATGCA,0.222

row,Sequence,PBM E-score
1,CAGGTTGG,-0.102
2,CCGCACGG,-0.194
3,CCGCCTTA,-0.165
4,CGAAAGCC,-0.152
5,CGTGGTTA,0.0491
6,TGAACAAA,0.175
7,ATTCTATG,0.0183
8,AGGATATG,0.105
9,ATACCGAA,0.174
10,CAGTCTGG,-0.213
11,ATACGGGC,-0.0422
12,GCAGAATA,0.039
13,CAACTCAC,-0.0341
14,ACGAGCCC,-0.291
15,CATCCAAG,-0.0981
16,CCTTCAAG,-0.201
17,AGCACGAT,-0.133
18,AAGGGTAG,-0.157
19,GCTAGTTA,-0.0898
20,ACGCACTA,0.0224
21,CTTTGCCC,-0.115
22,AGCGCGGA,0.0344
23,CCCCTGAA,-0.0139
24,ATGTATGG,-0.0391
25,ATCTATTA,-0.00074

row,Sequence,PBM E-score
1,AGACCCCC,-0.376
2,TCCAAGGA,0.0257
3,AGTCTAGA,-0.0412
4,ATTGAGTG,-0.0801
5,GATCAGGC,-0.0213
6,CTTCAGTC,-0.103
7,TCTTCGCA,0.11
8,AACGAAGG,-0.197
9,TACTCCAA,-0.074
10,ACGTCAAC,-0.0562
11,GATCGACA,0.0819
12,GTCGCAGA,0.116
13,AATCTTGT,0.139
14,ACCCTCCC,-0.0932
15,CCATTTGA,-0.0557
16,CGTGCTAA,-0.0653
17,TACAATCA,0.0162
18,AAATGTAG,-0.0386
19,AAGAGATA,-0.151
20,ATTCGTAC,0.0951
21,GATGTTCC,0.0607
22,ACAGCTCC,-0.0585
23,GCTAATCA,-0.0044
24,AAGATGGA,0.066
25,AGCGTTGG,-0.0707

row,Sequence,PBM E-score
1,GCTGCCCA,-0.113
2,TATTGCCA,-0.011
3,GCGCTGGA,-0.199
4,CGAAGTCA,0.0277
5,ATTCGCTC,0.225
6,GAGCACTA,-0.0253
7,ATCGCAAA,0.0406
8,GACACTAC,0.15
9,ATACTCGC,0.0688
10,CTAGAATA,0.18
11,GATCACGA,0.0365
12,CGCGTAGC,-0.121
13,CCCTACGG,-0.302
14,CTAACACC,-0.136
15,CGAGCTCG,0.179
16,GGCGTAGA,-0.208
17,AATTCGCA,0.0448
18,GGGCTCAA,-0.136
19,GGATCCAC,-0.148
20,GATGCCGC,0.0367
21,CAGAGGTA,-0.0212
22,GTCTTCAA,0.0796
